Out of some 370,000 compounds screened, about 150 (0.041%) were called active. Inconclusive results, whose numbers are uncertain, are shown with a selection of clear calls. Calls come from the whole dose curve; as a rule, active = well fitted inhibition curve with a large enough effect; inconclusive = small, poorly fitted or top-dose-only effect; inactive = flat fitted curve, though single readings scatter. Potencies of inconclusive entries are left out as doubtful fits. Square brackets hold non-standard residues; d marks the D form. Peptide text beside a SMILES is read from it. * marks the point of attachment. ξ: configuration not given here. ξF = NC(Cc1ccccc1)C(=O)O; Cbz = O=C(OCc1ccccc1)*
Biological target: Beta-lactamase (Escherichia coli (strain K12)) (UniProt P00811)
Chain of UniProt P00811 (P00811 whole entry, looked up): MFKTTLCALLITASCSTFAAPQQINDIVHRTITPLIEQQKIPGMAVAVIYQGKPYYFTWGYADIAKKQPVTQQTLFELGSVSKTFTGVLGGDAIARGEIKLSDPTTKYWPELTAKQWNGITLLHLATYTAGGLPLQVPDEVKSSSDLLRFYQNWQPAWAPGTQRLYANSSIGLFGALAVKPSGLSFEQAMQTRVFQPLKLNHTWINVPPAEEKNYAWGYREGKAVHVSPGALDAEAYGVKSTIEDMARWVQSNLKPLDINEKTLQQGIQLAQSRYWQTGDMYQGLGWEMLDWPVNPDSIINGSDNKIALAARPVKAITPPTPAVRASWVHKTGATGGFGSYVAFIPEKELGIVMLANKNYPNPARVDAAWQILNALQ
Experiment: qHTS Inhibitors of AmpC Beta-Lactamase (assay with detergent); note: nearly all actives have a fitted effect of over 25% in size
Settings: AmpC hydrolysis of nitrocefin, absorbance 480 nm, 0.01% Triton; series mostly up to 114 µM
How it was run: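 20 mM phosphate pH 7.0 + 0.01% (detergent screen) or 0.0001% Triton X-100; 5.3 nM AmpC reagent; cpd preinc 15 min RT; nitrocefin (800 uM stock) to start; A480 q20 s × 4 min; Activity was normalised to no-enzyme and no-compound control wells.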
Potency is the fitted concentration of half-maximal effect; tags give direction and shape of the fitted curve.

Question: `O=C(Nc1cccc(S(=O)(=O)N2CCCCC2)c1)C1CC(=O)N(Cc2ccco2)C1` (stereo not given) was tested. Which Potency did it give?
Answer: inactive

Question: For `O=C(Nc1ncc2c(n1)-c1ccccc1CC2)c1cccs1`, which Potency is on record?
Answer: inconclusive [inhibitor, full curve, poor fit]

Question: Which Potency does the source give for `CCCN1Cc2cccc(C(=O)Nc3cccc(C(=O)OCC)c3)c2C1=O` here?
Answer: inactive

Question: For `c1ccc(CCNc2c3c(nc4ncnn24)CCC3)cc1`, which Potency is on record?
Answer: inactive

Question: How did the Potency turn out when `CC1=C(C(=O)Nc2ccc(F)cc2F)C2(CCN(C(C)C)CC2)OC1=O` was run?
Answer: inactive

Question: How did the Potency turn out when `CN1C(=O)N(C)C(=O)C2(Cc3c(nc4ccccn4c3=O)N3CCC(Cc4ccccc4)CC32)C1=O` (stereo not given) was run?
Answer: inconclusive [inhibitor, full curve, poor fit]

Question: For `COc1ccccc1CCC(=O)N(C)C1CCCN(Cc2ccccc2F)C1` (stereo not given), which Potency is on record?
Answer: inconclusive [inhibitor, full curve, poor fit]

Question: For `Cc1ccc(S(=O)(=O)N2CCC(C(=O)N3CCC[C@H]3C(=O)NCc3ccco3)CC2)cc1`, which Potency is on record?
Answer: inactive

Question: Which Potency does the source give for `S=C(Nc1ccccc1Cl)N1CCN(Cc2ccccc2)CC1` here?
Answer: inconclusive [inhibitor, single point]

Question: Which Potency does the source give for `COc1ccc(CN2C(=O)C(Cc3ccccc3)Nc3ncnc(N4CCc5ccccc5C4)c32)cc1` (stereo not given) here?
Answer: inactive

Question: How did the Potency turn out when `Cc1cccc2cccnc12` was run?
Answer: inactive

Question: Which Potency does the source give for `Cc1cc(C)cc(CSCC(=O)NN=C2CCCCCC2)c1` here?
Answer: inconclusive [inhibitor, full curve, poor fit]

Question: How did the Potency turn out when `CCS(=O)(=O)N1CCC(C(=O)N2CCN(Cc3ccccc3)CC2)CC1` was run?
Answer: inconclusive [inhibitor, full curve, poor fit]

Question: With `CC1(C)CC2CC(C)(CN2C(=O)c2cc(-c3ccc(F)cc3)on2)C1` (stereo not given) as the molecule, how does the Potency read?
Answer: inconclusive [inhibitor, full curve, poor fit]

Question: Which Potency does the source give for `CC1=C(c2ccc(C(C)C)cc2)S(=O)(=O)N=C1N1CCC(C(=O)NCCc2ccco2)CC1` here?
Answer: inactive

Question: With `Cc1cccc(NC(=O)CN(C)C(C)C(=O)Nc2ccc(S(=O)(=O)N3CCCC3)cc2)c1C` (stereo not given) as the molecule, how does the Potency read?
Answer: inconclusive [inhibitor, full curve, poor fit]

Question: With `CCOc1ccccc1C1C(C#N)=C(N)N(N(C)C)C2=C1C(=O)CCC2` (stereo not given) as the molecule, how does the Potency read?
Answer: inactive

Question: How did the Potency turn out when `O=C(CCc1ccc(O)c(O)c1)NNC(=S)NCCc1ccccc1` was run?
Answer: inconclusive [inhibitor, full curve, poor fit]

Question: Which Potency does the source give for `CCCCCn1c(CN2CCCCC2CC)nc2c1c(=O)n(C)c(=O)n2C` (stereo not given) here?
Answer: inconclusive [inhibitor, full curve, poor fit]

Question: With `Cc1nc2ccc(NS(=O)(=O)c3ccc(C)c(C)c3)cc2s1` as the molecule, how does the Potency read?
Answer: inconclusive [inhibitor, full curve, poor fit]

Question: How did the Potency turn out when `O=C(CNC(=O)c1ccco1)NCC(=O)OCc1ccc(Cl)cc1` was run?
Answer: inconclusive [inhibitor, full curve, poor fit]

Question: `Cc1cc(-c2csc(NCc3ccccc3)n2)c(C)n1C` was tested. Which Potency did it give?
Answer: inactive

Question: Which Potency does the source give for `Cc1ccc(C2=NC3(CCCCCC3)NC2=S)cc1` here?
Answer: inconclusive [inhibitor, full curve, poor fit]

Question: How did the Potency turn out when `COc1ccc(C2CC(=O)c3cnc(N)nc3C2)c(OC)c1` (stereo not given) was run?
Answer: inconclusive [inhibitor, partial curve, poor fit]

Question: Which Potency does the source give for `Cc1ccc(-c2nc(CS(=O)CC(=O)NCc3ccc4c(c3)OCO4)c(C)o2)cc1` (stereo not given) here?
Answer: inactive

Question: How did the Potency turn out when `COc1ccc(S(=O)(=O)C(C#N)c2nc3ccccc3nc2N2CCCC(C)C2)cc1` (stereo not given) was run?
Answer: inconclusive [inhibitor, full curve, poor fit]

Question: For `COc1ccc(-c2nnc(NC(=O)CS(=O)(=O)c3ccc(F)cc3)o2)c(OC)c1`, which Potency is on record?
Answer: inconclusive [inhibitor, full curve, poor fit]

Question: Which Potency does the source give for `Cc1ccc(-c2nnc(N(C)C(=O)C3CCCO3)s2)cn1` (stereo not given) here?
Answer: inconclusive [inhibitor, partial curve, poor fit]

Question: Which Potency does the source give for `O=c1cc(N2CCCCC2)c(-c2ccccc2)nn1Cc1cccc(F)c1` here?
Answer: inconclusive [inhibitor, full curve]

Question: How did the Potency turn out when `CCOc1ccc(NS(=O)(=O)c2ccc3c4c(cccc24)C(=O)N3)cc1` was run?
Answer: inactive

Question: How did the Potency turn out when `O=C(CNC(=S)N(Cc1ccccc1)Cc1ccccc1F)NCc1ccccc1` was run?
Answer: inconclusive [inhibitor, full curve, poor fit]

Question: Which Potency does the source give for `CC(=O)OC[C@]1(OC(C)=O)C[C@@]23CC[C@H]4[C@@](C)(CCC[C@@]4(C)C(=O)O)[C@@H]2CC[C@@H]1C3` here?
Answer: inconclusive [inhibitor, full curve]

Question: How did the Potency turn out when `CC(=O)c1ccc(S(=O)(=O)N2CCN(C(=O)CSc3ccc(F)cc3)CC2)cc1` was run?
Answer: inconclusive [inhibitor, full curve, poor fit]

Question: For `C/C(N)=C(/C#N)C(=O)CN1C(=O)NC(Cc2c[nH]c3ccccc23)C1=O` (stereo not given), which Potency is on record?
Answer: inconclusive [inhibitor, partial curve]

Question: `Cc1cccc(NC(=O)CCS(=O)(=O)c2cc(Br)cc3c2N(C(=O)C2CC2)CC3)c1` was tested. Which Potency did it give?
Answer: inactive

Question: How did the Potency turn out when `CCn1c(SCC(=O)Nc2ccc3c(c2)OCCO3)nnc1-c1cccnc1` was run?
Answer: inactive

Question: Which Potency does the source give for `CCOc1cc(/C=C(\C#N)C(=O)NCC2CCCO2)ccc1OCC(N)=O` (stereo not given) here?
Answer: inactive

Question: `Cc1cc(C)cc(NC(=O)C(OC(=O)c2ccc([N+](=O)[O-])o2)c2ccccc2)c1` (stereo not given) was tested. Which Potency did it give?
Answer: inactive

Question: How did the Potency turn out when `CO/N=C(/CS(=O)Cc1ccccc1Cl)c1ccc(Cl)cc1Cl` (stereo not given) was run?
Answer: inconclusive [inhibitor, single point]

Question: `CCOc1cc(-c2nc(-c3ccc(OC)cc3)no2)cc(OCC)c1OCC` was tested. Which Potency did it give?
Answer: inconclusive [inhibitor, full curve, poor fit]

Question: For `CC(=O)Nc1cccc(N2C(=O)CC(N3CCC(C(=O)N4CCCCC4)CC3)C2=O)c1` (stereo not given), which Potency is on record?
Answer: inconclusive [inhibitor, full curve, poor fit]

Question: How did the Potency turn out when `CCN(CC(=O)NC1CC1)S(=O)(=O)c1ccccc1` was run?
Answer: inactive

Question: For `Cc1cccc(C(=O)N/N=C/c2ccc[nH]2)c1`, which Potency is on record?
Answer: inactive

Question: Which Potency does the source give for `O=C(O)CCCN1C(=O)C2C3CCC(O3)C2C1=O` (stereo not given) here?
Answer: inconclusive [inhibitor, single point]

Question: With `O=C1CCC(C(=O)OC(C(=O)c2c[nH]c3ccccc23)c2ccccc2)=NN1` (stereo not given) as the molecule, how does the Potency read?
Answer: inconclusive [inhibitor, full curve, poor fit]

Question: How did the Potency turn out when `COc1ccc(CN2C(=O)NC(=O)/C(=C/c3ccc([N+](=O)[O-])o3)C2=O)cc1` was run?
Answer: inconclusive [inhibitor, single point]

Question: For `CC(C)[C@H](NC(=O)OCc1ccccc1)C(=O)NC(C=O)Cc1ccccc1` (stereo partly drawn) (Cbz-Val-[ξF]-aldehyde), which Potency is on record?
Answer: inconclusive [inhibitor, full curve, poor fit]

Question: Which Potency does the source give for `O=C(Nc1ncc([N+](=O)[O-])s1)c1cccs1` here?
Answer: inactive

Question: `CCCCS(=O)(=O)c1oc(-c2ccc(F)cc2)nc1S(=O)(=O)c1ccc(C)cc1` was tested. Which Potency did it give?
Answer: inactive

Question: `COc1ccc(OCc2cc(C(=O)NCCN3CCCc4ccccc43)no2)c(Cl)c1` was tested. Which Potency did it give?
Answer: inactive

Question: Which Potency does the source give for `CCN(CC)c1ccc(/C=C/C(=O)C2C(=O)C=C(C)OC2=O)cc1` (stereo not given) here?
Answer: inactive

Question: Which Potency does the source give for `CCC12CN3CCN(CC(C3)/C1=N\NC(=O)c1ccc(F)cc1)C2` here?
Answer: inconclusive [inhibitor, partial curve]

Question: Which Potency does the source give for `CC(C)C(=O)N1CCN(CCN2C(=O)c3cccc4cccc(c34)C2=O)CC1` here?
Answer: inactive

Question: Which Potency does the source give for `COc1cc(/C=N/NC(=S)Nc2cccc(C(=O)O)c2)ccc1O` here?
Answer: inconclusive [inhibitor, partial curve]

Question: `Cc1n[nH]c(C)c1S(=O)(=O)N1CCCC(C(=O)Nc2ccc3c(c2)OCCO3)C1` (stereo not given) was tested. Which Potency did it give?
Answer: inconclusive [inhibitor, full curve, poor fit]

Question: Which Potency does the source give for `CN(Cc1ccccc1)C(=O)N[C@@H](Cc1ccccc1)C(=O)O` here?
Answer: inconclusive [inhibitor, partial curve, poor fit]

Question: With `CC(=O)Nc1ccc(C(=O)NNC(=O)CCc2ccccc2)cc1` as the molecule, how does the Potency read?
Answer: inactive

Question: For `CCCN1C(=O)c2ccc(C(=O)NC3CCCCC3)cc2C1=O`, which Potency is on record?
Answer: inconclusive [inhibitor, full curve]

Question: Which Potency does the source give for `CC(=O)Nc1ccc(C(=O)NCC(=O)OCc2c(F)cccc2Cl)cc1` here?
Answer: inconclusive [inhibitor, full curve, poor fit]

Question: With `NC(=O)CSc1nc2ccccc2c(=O)n1-c1ccccc1` as the molecule, how does the Potency read?
Answer: inconclusive [inhibitor, full curve, poor fit]

Question: `COc1ccc(NC(=O)C(=S)N2CCCC2)cc1` was tested. Which Potency did it give?
Answer: inactive

Question: How did the Potency turn out when `COc1ccc(CCNC(=O)c2ccc3c(c2)OCCO3)cc1` was run?
Answer: inactive

Question: For `CCOc1ccc(OCCOCCN2CCOCC2)cc1`, which Potency is on record?
Answer: inconclusive [inhibitor, full curve, poor fit]

Question: `N#Cc1cc2c(nc1SCc1cccnc1)CCC2` was tested. Which Potency did it give?
Answer: inconclusive [inhibitor, partial curve]

Question: For `O=c1c2cc(N3CCOCC3)ccc2[nH]c(=S)n1Cc1cccc(Cl)c1`, which Potency is on record?
Answer: inactive

Question: `COc1cccc(N2CCN(S(=O)(=O)c3cc(-c4cc(C)no4)ccc3C)CC2)c1` was tested. Which Potency did it give?
Answer: inactive

Question: For `Cc1ccc(-c2nn(-c3ccccc3Cl)cc2C(=O)NCC2CCCO2)cc1` (stereo not given), which Potency is on record?
Answer: inconclusive [inhibitor, partial curve, poor fit]

Question: `CCOCCCNS(=O)(=O)c1ccc(NC(=O)C2CC(=O)N(c3ccc(C)cc3)C2)cc1` (stereo not given) was tested. Which Potency did it give?
Answer: inconclusive [inhibitor, single point]

Question: With `COC(=O)c1ccccc1NC(=O)CCCn1c(=O)c2cccn2c2cccnc21` as the molecule, how does the Potency read?
Answer: inactive

Question: `C=C(C)C1CCC(C)=C1COC(=O)Nc1ccccc1` (stereo not given) was tested. Which Potency did it give?
Answer: inconclusive [inhibitor, full curve, poor fit]
